# Assay results published in the supplement of paper PMC3334620.
# Over roughly 33,000 sequences, “E-score (-0.5 to 0.5)” has its median near -0.012; the highest 2% begin near 0.29. This is one part of the list.
# Target: T1, Ybr033w (UniProt P38073)
# T1 sequence: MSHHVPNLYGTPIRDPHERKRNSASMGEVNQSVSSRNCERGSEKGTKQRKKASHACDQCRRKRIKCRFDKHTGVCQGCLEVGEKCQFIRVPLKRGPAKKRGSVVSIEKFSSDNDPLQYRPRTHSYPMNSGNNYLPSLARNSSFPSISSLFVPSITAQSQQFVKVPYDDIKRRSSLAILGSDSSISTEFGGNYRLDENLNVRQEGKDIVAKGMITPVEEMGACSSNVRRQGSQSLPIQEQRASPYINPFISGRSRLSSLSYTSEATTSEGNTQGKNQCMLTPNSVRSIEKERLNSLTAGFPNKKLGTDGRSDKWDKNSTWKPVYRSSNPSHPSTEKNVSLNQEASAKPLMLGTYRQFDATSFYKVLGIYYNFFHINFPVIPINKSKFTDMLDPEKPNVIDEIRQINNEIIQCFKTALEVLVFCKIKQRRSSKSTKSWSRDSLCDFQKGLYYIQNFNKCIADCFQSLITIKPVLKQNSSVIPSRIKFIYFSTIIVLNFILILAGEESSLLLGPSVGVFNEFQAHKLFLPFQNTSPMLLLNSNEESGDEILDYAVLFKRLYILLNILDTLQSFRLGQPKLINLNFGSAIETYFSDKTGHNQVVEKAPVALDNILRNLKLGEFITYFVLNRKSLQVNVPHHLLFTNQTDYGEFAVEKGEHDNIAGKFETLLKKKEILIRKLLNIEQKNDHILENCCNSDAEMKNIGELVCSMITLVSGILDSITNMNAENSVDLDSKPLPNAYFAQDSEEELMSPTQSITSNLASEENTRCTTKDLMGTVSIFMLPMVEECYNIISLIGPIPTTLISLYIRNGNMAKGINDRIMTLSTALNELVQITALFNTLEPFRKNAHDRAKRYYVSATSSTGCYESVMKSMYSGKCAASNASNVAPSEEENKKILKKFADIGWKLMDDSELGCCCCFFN
# Experiment: PBM E-score (8-mer binding enrichment) (E-score (-0.5 to 0.5)); higher = stronger / more preferred TF binding; most listed sequences are background and not binding sites
# Conditions: protein concentration: 200 nM; construct: GST-full length
# Procedure, shortened: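 Yeast transcription factors, full-length or as DNA-binding domains, were expressed with a GST tag using PURExpress in vitro transcription/translation. At about 100-200 nM they were applied to universal all-10-mer Agilent arrays, double-stranded by primer extension on fresh or once-stripped slides. Fluorescent anti-GST detected bound protein, and masliner normalised the scans. E-scores for ungapped eight-base words, pooled with reverse complements, came from the Universal PBM Analysis Suite.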
row,Sequence,PBM E-score
1,ACTTACGA,0.219
2,CAGTGTAG,0.00295
3,ATAACCTC,0.0117
4,ATAGTATG,0.196
5,CACCCGCC,-0.0742
6,ACCTCAAA,0.159
7,TAGGAGGA,0.0316
8,CCCTGGCA,-0.268
9,GAAAAACA,0.295
10,GGAACTAC,0.103
11,CGGGAAGC,-0.123
12,GAAGCTCC,0.0146
13,CATACAGC,-0.188
14,CCCAAGCA,-0.0848
15,GCTCCAGC,-0.092
16,GGGAGCAA,-0.2
17,AGTCGTAA,0.283
18,GCCACGGC,-0.199
19,GGCACGGA,-0.126
20,CTCTTGTA,-0.0293
21,CCTCTCTA,-0.294
22,GGGTACAC,-0.233

row,Sequence,PBM E-score
1,GCGCGTGA,0.0449
2,AAAACCAC,0.182
3,GACGCTTA,-0.151
4,ACACTAGG,0.224
5,CTCCATAC,-0.0423
6,CGCGCCAG,-0.0849
7,GGCGGGAC,-0.302
8,ACCTCGTC,-0.116
9,GTCCTTTA,-0.252
10,ACGTAGAT,0.0816
11,AGGACCAC,-0.167
12,GATTCCAC,0.0982
13,GGCTTCGA,-0.138
14,CACAAAGA,0.0377
15,GGTGGAAA,-0.00937
16,GTGCCTCA,-0.15
17,GGATAATA,0.349
18,CTAACATA,0.237
19,GTCGCAAC,-0.0869
20,AAGGTGAC,-0.0795
21,AAAGATTC,0.162
22,CACGCGGC,-0.127

row,Sequence,PBM E-score
1,CTAGAAAA,0.154
2,CTCTGTTC,0.0244
3,CGATGGGC,-0.192
4,CAATACTC,0.193
5,ATGAGCTC,-0.138
6,ACTGTCGC,-0.0615
7,AAGGACAC,-0.00087
8,TCTGATAA,0.102
9,TATCCAAA,0.0863
10,GCTAAAGA,0.106
11,GGTAAAAA,0.16
12,ACGGCTAT,-0.0639
13,GGGCTCGA,-0.217
14,AAAATTGG,0.164
15,CCGTTGTC,-0.0101
16,CTGGTTGC,0.0954
17,GGTGGTTA,0.025
18,CAGTAGAC,0.0443
19,GAATTAAC,0.249
20,AACACAGA,0.049
21,CACGGCGC,-0.00486
22,GAATCTAA,0.199

row,Sequence,PBM E-score
1,AGCCACTG,-0.103
2,CATCCTAC,0.0917
3,AAAGGAAT,0.0153
4,GCGATTTA,0.0771
5,GATAGGGC,-0.0405
6,AGCTGGCC,-0.179
7,CCCCCGAA,-0.193
8,GCCGGAAA,0.302
9,CCCGTATC,-0.158
10,CTAAGGAG,-0.275
11,TAGTCACA,0.102
12,GGTTGCAC,-0.131
13,GAGCCTCA,-0.143
14,ACACTGCG,-0.0751
15,CAAACGGA,-0.0796
16,AAGGAGGG,-0.167
17,CTACCTCC,-0.125
18,AAAGTGCA,0.147
19,AAAAAGGC,0.137
20,ACCCATAC,0.0342
